Out of some 310,000 compounds screened, about 14,000 (4.5%) showed an effect of 50% or more. The effect is printed as a negative number. The list shows a part of the results.
Target: human ether-à-go-go-related gene (hERG) potassium channel (human, UniProt Q12809)
Test: primary screen, population patch clamp on CHO cells stably expressing hERG
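Note: peak tail current of the secondary pulse compared with the same well before compound.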

Sequence of human ether-à-go-go-related gene (hERG) potassium channel (Q12809 whole entry, looked up): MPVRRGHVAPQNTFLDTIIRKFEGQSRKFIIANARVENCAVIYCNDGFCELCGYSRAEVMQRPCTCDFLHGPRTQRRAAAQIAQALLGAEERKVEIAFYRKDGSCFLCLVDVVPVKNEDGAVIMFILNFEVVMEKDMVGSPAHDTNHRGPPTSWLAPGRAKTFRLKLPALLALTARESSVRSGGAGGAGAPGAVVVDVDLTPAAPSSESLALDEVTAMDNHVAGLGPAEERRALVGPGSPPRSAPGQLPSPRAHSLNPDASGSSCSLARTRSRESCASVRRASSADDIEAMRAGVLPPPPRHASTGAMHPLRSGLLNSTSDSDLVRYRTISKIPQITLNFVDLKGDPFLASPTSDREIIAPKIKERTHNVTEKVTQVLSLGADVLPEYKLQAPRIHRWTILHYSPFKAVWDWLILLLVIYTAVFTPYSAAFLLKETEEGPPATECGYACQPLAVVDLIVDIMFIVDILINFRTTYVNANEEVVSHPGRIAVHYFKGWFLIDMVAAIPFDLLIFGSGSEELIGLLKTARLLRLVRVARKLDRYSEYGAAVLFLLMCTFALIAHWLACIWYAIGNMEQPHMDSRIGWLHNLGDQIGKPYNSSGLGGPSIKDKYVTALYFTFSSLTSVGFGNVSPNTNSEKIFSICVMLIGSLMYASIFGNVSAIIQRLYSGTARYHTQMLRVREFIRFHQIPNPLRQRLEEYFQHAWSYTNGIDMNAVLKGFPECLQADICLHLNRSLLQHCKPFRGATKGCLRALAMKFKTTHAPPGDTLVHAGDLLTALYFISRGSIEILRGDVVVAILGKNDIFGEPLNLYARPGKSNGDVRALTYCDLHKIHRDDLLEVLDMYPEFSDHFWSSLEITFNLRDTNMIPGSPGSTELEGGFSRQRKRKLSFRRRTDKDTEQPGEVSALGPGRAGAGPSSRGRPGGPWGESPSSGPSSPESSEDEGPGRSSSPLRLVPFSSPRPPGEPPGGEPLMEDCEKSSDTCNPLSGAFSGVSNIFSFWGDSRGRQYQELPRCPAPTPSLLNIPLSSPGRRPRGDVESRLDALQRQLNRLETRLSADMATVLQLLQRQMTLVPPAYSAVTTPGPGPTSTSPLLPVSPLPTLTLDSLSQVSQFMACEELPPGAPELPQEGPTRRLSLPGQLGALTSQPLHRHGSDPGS

| Compound | hERG current change (%, negative = inhibition) at 10uM |
| --- | --- |
| N=C1C(c2ccccc2)=C(O)CN1c1cccc(S(=O)(=O)N2CCCCC2)c1 | 7.36% |
| Cc1cccc(C(=O)Nc2cccc(NC(=O)c3ccccc3)c2)c1 | -17.4% |
| Oc1ccccc1-c1cc(C(F)(F)F)nc(-c2ccccc2)n1 | 14.8% |
| COc1ccc(N(CC(=O)Nc2cc(C)ccc2C)S(=O)(=O)c2ccccc2[N+](=O)[O-])c(OC)c1 | 7.58% |
| O=C(CCS(=O)(=O)c1ccccc1)Nc1ccccc1F | 17.5% |
| COc1cccc(C(=O)N2CCN(c3ncccn3)CC2)c1 | -30.8% |
| O=C(OCCCN1C(=O)c2ccccc2C1=O)c1ccco1 | -5.16% |
| C[C@@H](NC(=O)c1[nH]cnc1C(=O)Nc1ccon1)c1ccccc1 | -1.13% |
| O=C(CN1CCN(S(=O)(=O)c2ccc3ccccc3c2)CC1)Nc1ccc(N2CCOCC2)cc1 | 4.94% |
| C=CCc1cccc(Cl)c1OCCON1C(=O)CCC1=O | -2.1% |
| Cc1nn(Cc2ccccc2Cl)c(C)c1NC(=O)c1nc2ncccn2n1 | 16.9% |
| COc1ccc(NC(=O)OCCn2c([N+](=O)[O-])cnc2C)cc1 | 3.85% |
| CCOC(=O)CCn1cc(F)c(=O)[nH]c1=O | 22% |
| COc1ccccc1N1CCN(S(=O)(=O)c2cnc[nH]2)CC1 | -0.799% |
| C=Cn1cc[n+](CC(=O)c2ccc(OC)c(OC)c2)c1.[Br-] | 4.74% |
| COc1ccc(N2C(=O)C3C(C2=O)C2C=CC3C23CC3)c(OC)c1 (centres unmarked) | 16.4% |
| CC(C(c1ccc2c(c1)OCO2)c1c(N)n(C)c(=O)n(C)c1=O)[N+](=O)[O-] (centres unmarked) | 4.36% |
| CSc1ccc(S(=O)(=O)NCCOc2ccccc2C)cc1 | -2.68% |
| O=C(CSc1ccc(-c2cccc([N+](=O)[O-])c2)nn1)N1CCCC1 | -24.7% |
| CCCCc1ncc(CN2CCN(Cc3ccc(C)cc3)C(CCO)C2)[nH]1 (centres unmarked) | -57.9% |
| O=C(CNC(=O)C12CC3CC(CC(C3)C1)C2)OCC(=O)N1CCCCC1 | -0.93% |
| Cc1cc(NC(=O)CCN2C(=O)C3C4C=CC(C4)C3C2=O)ccc1Br (centres unmarked) | -27.4% |

| Compound | hERG current change (%, negative = inhibition) at 10uM |
| --- | --- |
| Clc1ccc(-c2cnc3ccccc3n2)cc1 | 9.07% |
| c1ccc(CSc2ccc(-c3ccccn3)nn2)nc1 | 5.33% |
| O=C(NCCCN1CCCC1=O)c1cccc(S(=O)(=O)Nc2ccc(F)cc2)c1 | -24.5% |
| C[C@@H]1O[C@@H](O[C@H]2C[C@@H](O)[C@]3(CO)[C@H]4[C@H](O)C[C@]5(C)[C@@H](C6COC(=O)C6)CC[C@]5(O)[C@@H]4CC[C@]3(O)C2)[C@H](O)[C@H](O)[C@H]1O (some centres unmarked) | 5.57% |
| CCOc1ccc(/C=C2\SC(=S)N(CC(=O)Nc3ccccn3)C2=O)cc1 | -3.47% |
| O=C(NC1CCCCC1)NC1(C(=O)N2CCN3CCCC3C2)CCCCC1 (centres unmarked) | 3.18% |
| O=C(O)CCCCCNCc1ccncc1 | -7.88% |
| O=C(C1=C[C@H](c2csc3ccccc23)C[C@H](OCc2ccc(CO)cc2)O1)N1CCN(Cc2ccc3c(c2)OCO3)CC1 | 12.4% |
| C=C(C)n1c(=O)n(Cc2ccccc2C)c2ccccc21 | -13% |
| O=C1Nc2ccc(Br)cc2C1(O)c1ccc(F)cc1 (centres unmarked) | 7% |
| O=[N+]([O-])c1cccc(-c2nc(Oc3ccc(Cl)cc3)c3ccccc3n2)c1 | 8.2% |
| O=C(Nc1cccc(-c2ccc(N3CCOCC3)nn2)c1)c1ccccc1Cl | 27% |
| C#CCN1C(=O)C(O)(CC(=O)/C=C/c2ccco2)c2ccccc21 (centres unmarked) | 9.86% |
| c1ccc(-c2nnc(SCc3nc4ccccc4[nH]3)n2Cc2ccco2)cc1 | -22.4% |
| CCCCNC(=O)Nc1c(C(=O)OCC)[nH]c2ccccc12 | 6.83% |
| COc1cc(NC(=O)C/C(C)=N/NC(=O)c2cccc(O)c2)c(OC)cc1Cl | -8.16% |
| Cc1ccc(-n2ncc3c2CC(C)(C)CC3NC(=O)c2cc[n+]([O-])cc2)cc1 (centres unmarked) | -75.4% |
| CCCN(CC1CC1)C(=O)COC(=O)c1oc2ccc(OCC)cc2c1C | -27.8% |
| O=C(NNC(=S)Nc1ccc(F)cc1)c1cccc([N+](=O)[O-])c1 | 18.1% |
| CCCSc1nnc(Cc2cc(=O)[nH]c(=O)[nH]2)n1-c1cc(C)ccc1C | 16.5% |
| COc1cc(C(C(=O)NC(C)(C)C)N(C(=O)CNC(=O)c2cccs2)c2ccccc2)cc(OC)c1OC (centres unmarked) | 19.4% |
| O=C(NCC1OCCCN1S(=O)(=O)c1ccc(F)cc1)C(=O)NC1CCCC1 (centres unmarked) | -15.8% |

| Compound | hERG current change (%, negative = inhibition) at 10uM |
| --- | --- |
| COc1ccc(C(C)=O)cc1CN(c1ccccc1OC)S(=O)(=O)c1cccs1 | 7.7% |
| CCCOc1cccc(C(=O)NCCNC(=O)c2cnccn2)c1 | 11.6% |
| Cc1cccc(OCCNc2ccc(C(F)(F)F)cc2[N+](=O)[O-])c1 | 15.4% |
| Cc1nnc(SCc2ccc([N+](=O)[O-])cc2)o1 | -12.9% |
| Cc1cc(C)nc(SCc2cnc(C)nc2N)n1 | 21.6% |
| COc1ccc(OC)c(NC(=O)c2ccc(N3C(=O)C4CC=C(C)CC4C3=O)cc2)c1 (centres unmarked) | 3.31% |
| C=CCN(c1ccc(C(=O)Nc2cc(C)cc(C)c2)cc1)S(C)(=O)=O | -12.7% |
| Cc1c(NC(=O)COc2ccc3ccc(=O)oc3c2)c(=O)n(-c2ccccc2)n1C | -4.19% |
| C1COCCO1.COc1ccc(NS(=O)(=O)c2ccc(N3CCOCC3)c(NC(=O)c3ccccc3Cl)c2)cc1 | 9.22% |
| Cc1cc(N)n(-c2ccc(S(=O)(=O)c3ccc(C(C)C)cc3)cc2)n1 | 4.09% |
| CCCC1(C(=O)OCC)NC(c2ccc(O)cc2)C2C(=O)N(c3cccc(C(C)=O)c3)C(=O)C21 (centres unmarked) | 11.2% |
| O=C(CN1C(=O)c2ccccc2C1=O)Nc1nnc(C2CCCO2)s1 (centres unmarked) | 16.9% |
| CC(=O)CSc1nnc(C(F)(F)F)n1C | 14.4% |
| COc1ccc(NC(=O)c2ccccc2NC(=O)c2ccco2)c(OC)c1 | -73.4% |
| COc1ccc(CN2CCCC(CO)(Cc3ccc(F)cc3F)C2)cc1 (centres unmarked) | 6.12% |
| O=C(c1cccc(C(=O)N2CCN(Cc3ccccc3)CC2)c1)N1CCN(Cc2ccccc2)CC1 | -17.2% |
| CCC1NC(C(=O)O)Cc2c1[nH]c1ccccc21 (centres unmarked) | 4.66% |
| Cc1ccc(-c2n[nH]c(=S)c3ccccc23)cc1 | -2.04% |
| CC12CCC(=O)N1C(C(=O)Nc1nc3ccc(Cl)cc3s1)CS2 (centres unmarked) | -42.3% |
| CC1N(O)C2CCCCCC2N1O (centres unmarked) | 17.6% |
| CCC1=NN(C(=O)Cc2ccc([N+](=O)[O-])cc2)C(O)(C(F)(F)F)C1 (centres unmarked) | -13.3% |
| Cc1ccccc1CN1C2=NCCN2c2ccccc21.Cl | -53.7% |

| Compound | hERG current change (%, negative = inhibition) at 10uM |
| --- | --- |
| COc1cc(/C=C(/C#N)C(=O)Nc2ccccc2)c(Br)cc1OCc1ccc(C(=O)O)cc1 | 9.98% |
| CCOc1ccc(C(=O)NCC(=O)OCC(=O)Nc2nnc(-c3ccccc3)o2)cc1 | -9.51% |
| COc1ccccc1Oc1ccnc2cc(Cl)ccc12 | -8.96% |
| COc1ccc(NC(=O)Nc2ccc(F)c(F)c2)c(OC)c1 | 23.4% |
| CC1=C(C(=O)Nc2cc(C(=O)N3CCC(C)CC3)ccc2C)SCCO1 | 9.92% |
| COc1ccc(NS(=O)(=O)c2cccc(C(=O)OCC(=O)N3CCN(c4ccc(OC)cc4)CC3)c2)cc1 | -10.1% |
| COc1ccccc1CNC(=O)c1cccs1 | 3.82% |
| Cc1ccc(CCC(=O)Nc2ccc([N+](=O)[O-])cc2Cl)o1 | -4.02% |
| Cc1ccc(NC(=O)CCC(=O)N/N=C/c2ccc(O)cc2)cc1 | 17.3% |
| Cc1csc2ncc(C(=O)Nc3ccon3)c(=O)n12 | 7.44% |
| COC(=O)CNc1nc(Cl)nc(Nc2ccc(C)cc2)n1 | 18.3% |
| COc1ccc(CC2(C)OC(c3ccc(Cl)cc3)=NN2C(C)=O)cc1 (centres unmarked) | -1.94% |
| CCc1nccn1CCC(=O)NC1CC(C)(C)Cc2c1cnn2-c1ccc(OC)cc1 (centres unmarked) | -16.2% |
| COc1cc(CNc2ncc(-c3ccc(Br)cc3)n2C)cc(OC)c1OC.O=C(O)C(=O)O | -49.9% |
| COCC(=O)N(CCc1ccc(OC)cc1)Cc1nc2ccccc2c(=O)[nH]1 | -2.83% |
| COc1ccc2nc(SCC(=O)C(C)(C)C)[nH]c2c1 | -0.0981% |
| CC(Sc1nnnn1-c1ccc(O)cc1)c1nc2ccccc2c(=O)[nH]1 (centres unmarked) | -13.4% |
| Cc1cc(/C=N/n2cnnc2)c(C)n1-c1ccc(C(=O)O)cc1 | -1.93% |
| Cc1cc(OCC(=O)Nc2ccc(N3CCN(C(=O)c4ccco4)CC3)cc2)cc(C)c1Cl | 2.99% |
| COc1cc(OC)c(C(=O)OCC(=O)Nc2ccccc2Cl)cc1OC | 14.3% |
